According to the antibiotic and cytotoxicity screens of Wong et al. (2023):
The other results are listed elsewhere or left out.

What follows are compounds tested on HepG2 (assay: cytotoxicity call (relative viability < 0.9)). Conditions: 10 µM.
In the case of `COc1ccc(S(=O)(=O)Nc2cccc3c2O[C@@H](CN(C)Cc2ccc(-c4ccccc4)cc2)[C@H](C)CN([C@H](C)CO)C3=O)cc1`, the cytotoxicity call is reported as “inactive”. With `C[C@H](CO)N1C[C@H](C)[C@@H](CN(C)Cc2ccc(C(F)(F)F)cc2)OCCCC[C@H](C)Oc2ccc(NC(=O)c3ccccc3)cc2C1=O` the cytotoxicity call was “inactive”. With `C[C@H]1CN([C@@H](C)CO)C(=O)c2cc(NC(=O)Nc3ccc(C(F)(F)F)cc3)ccc2O[C@@H]1CN(C)Cc1ccncc1` the cytotoxicity call was “active”. With `C[C@@H]1CN([C@H](C)CO)C(=O)Cc2cc(NC(=O)C3CC3)ccc2O[C@@H]1CN(C)S(=O)(=O)c1cn(C)cn1` the cytotoxicity call was “inactive”. `C#CCN1[C@H](/C=C/C2CC2)[C@H](CCn2cc(-c3ccc(C(=O)NO)s3)nn2)OC(=O)[C@@H]1Cc1ccccc1` was tested, and the cytotoxicity call was “inactive”. In the case of `C[C@H](CO)N1C[C@H](C)[C@H](CN(C)CC2CCCCC2)Oc2c(NC(=O)Nc3cccc4ccccc34)cccc2C1=O`, the cytotoxicity call is reported as “inactive”. For `Cc1ccc(S(=O)(=O)Nc2ccc3c(c2)C(=O)N([C@H](C)CO)C[C@@H](C)[C@@H](CN(C)S(=O)(=O)c2ccc(F)cc2)OCCCC[C@@H](C)O3)cc1`, the cytotoxicity call was “inactive”. With `COCCOC(=O)N1C(=O)[C@@]2(c3cc(C#CCC(C(=O)OC)C(=O)OC)ccc31)[C@H](C(=O)N1CCCCCCC1)[C@H]1C(=O)O[C@H](c3ccccc3)[C@H](c3ccccc3)N1[C@@H]2c1ccc(OCCO)cc1` the cytotoxicity call was “inactive”. In the case of `NNC(=O)CNc1ccc2c(c1)OCO2`, the cytotoxicity call is reported as “inactive”. For `C[C@@H]1CCCCO[C@@H](CN(C)S(=O)(=O)c2ccc(F)cc2)[C@@H](C)CN([C@@H](C)CO)C(=O)c2cc(NC(=O)CCC(F)(F)F)ccc2O1`, the cytotoxicity call was “inactive”. With `C[C@H](CO)N1C[C@H](C)[C@H](CN(C)S(=O)(=O)c2cn(C)cn2)Oc2cc(C3=CCCC3)ccc2S1(=O)=O` the cytotoxicity call was “inactive”.

What follows are compounds tested on S. aureus RN4220 (assay: growth inhibition call (relative growth <= 0.2)). Conditions: 50 µM.
`C[C@@H]1CN([C@@H](C)CO)S(=O)(=O)c2ccc(C#CCC3CCCC3)cc2O[C@@H]1CN(C)C(=O)c1cnccn1` was tested, and the growth inhibition call was “inactive”. `C[C@@H]1CCCCO[C@H](CN(C)C(=O)Nc2ccccc2)[C@@H](C)CN([C@@H](C)CO)C(=O)c2cc(NC(=O)CCC(F)(F)F)ccc2O1` was tested, and the growth inhibition call was “inactive”. With `Cc1noc(C)c1S(=O)(=O)Nc1ccc2c(c1)C(=O)N([C@H](C)CO)C[C@@H](C)[C@@H](CN(C)C(=O)Nc1ccccc1)OCCCC[C@@H](C)O2` the growth inhibition call was “inactive”. With `C[C@H](CO)N1C[C@H](C)[C@H](CN(C)C(=O)Nc2ccc(C(F)(F)F)cc2)Oc2ccc(NC(=O)Nc3ccc4c(c3)OCO4)cc2C1=O` the growth inhibition call was “inactive”. With `OC[C@@H](O)[C@@H](O[C@@H]1O[C@H](CO)[C@H](O)[C@H](O)[C@H]1O)[C@H](O)[C@@H](O)CO` the growth inhibition call was “inactive”. With `Cc1ccc(S[C@H](C)C(=O)c2ccc(C)c(Cl)c2)cc1` the growth inhibition call was “inactive”. With `C[C@@H]1CCCCO[C@@H](CN(C)Cc2ccncc2)[C@H](C)CN([C@@H](C)CO)C(=O)c2cc(NC(=O)NC3CCCCC3)ccc2O1` the growth inhibition call was “inactive”. With `C[C@@H]1CN([C@H](C)CO)C(=O)Cc2cc(NC(=O)Cc3ccccc3)ccc2O[C@@H]1CN(C)S(=O)(=O)c1ccccc1` the growth inhibition call was “inactive”. For `COc1ccc(S(=O)(=O)Nc2ccc3c(c2)C(=O)N([C@H](C)CO)C[C@H](C)[C@H](CN(C)C(=O)NC2CCCCC2)OCCCC[C@H](C)O3)cc1`, the growth inhibition call was “inactive”. For `COc1ccc(-c2cnc3c(c2)C(=O)N([C@H](C)CO)C[C@H](C)[C@@H](CN(C)C(=O)Cc2ccccn2)O3)cc1`, the growth inhibition call was “inactive”. In the case of `C[C@H](CO)N1C[C@H](C)[C@@H](CN(C)Cc2ccc(Cl)c(Cl)c2)Oc2ccc(NS(=O)(=O)c3ccc(Cl)cc3)cc2C1=O`, the growth inhibition call is reported as “inactive”. In the case of `C[C@@H]1CN([C@H](C)CO)C(=O)c2cc(NC(=O)Nc3ccccc3)ccc2O[C@@H](C)CCCCO[C@H]1CN(C)S(=O)(=O)c1ccccc1`, the growth inhibition call is reported as “inactive”. In the case of `Cc1ccc(S(=O)(=O)N2C[C@@H](O)COC[C@H]3O[C@H](CC(=O)NCc4ccc(Cl)cc4)CC[C@@H]32)cc1`, the growth inhibition call is reported as “inactive”. In the case of `O=C(C[C@H]1C[C@H]2c3cc(NC(=O)C4CCOCC4)ccc3O[C@H]2[C@@H](CO)O1)NCc1cc(F)ccc1F`, the growth inhibition call is reported as “inactive”. `c1ccc2cc3nc4c(ccc5ccccc54)nc3cc2c1` was tested, and the growth inhibition call was “inactive”. For `CC1(C)OC2CC3C4CCC5=CC(=O)C=CC5(C)C4C(O)CC3(C)C2(C(=O)CO)O1` (centres undefined), the growth inhibition call was “inactive”. With `NC[C@H](c1cccs1)N1CCCCCC1` the growth inhibition call was “inactive”. For `CC(C)NC(=O)N(C)C[C@H]1OCCCC[C@H](C)Oc2ccc(NS(C)(=O)=O)cc2C(=O)N([C@@H](C)CO)C[C@@H]1C`, the growth inhibition call was “inactive”.
